# Measurements taken from PubChem BioAssay AID588795 (National Center for Advancing Translational Sciences (NCATS), 2011).
# Hit rate of the full screen: of about 390,000 compounds, about 1,400 (0.36%) were called active. The shares of active, inactive and inconclusive entries below differ from those in the screen. The call rests on the fitted dose curve; in most records, active means well fitted inhibition curve with a large enough effect; inconclusive means small, poorly fitted or top-dose-only effect; inactive means no such curve, though single readings can be large or run the other way. A potency beside an inconclusive call is a rough fit, not a confirmed value.
# Biological target: Flap endonuclease 1 (Homo sapiens) (UniProt P39748)
# Sequence of UniProt P39748 (P39748 whole entry, looked up): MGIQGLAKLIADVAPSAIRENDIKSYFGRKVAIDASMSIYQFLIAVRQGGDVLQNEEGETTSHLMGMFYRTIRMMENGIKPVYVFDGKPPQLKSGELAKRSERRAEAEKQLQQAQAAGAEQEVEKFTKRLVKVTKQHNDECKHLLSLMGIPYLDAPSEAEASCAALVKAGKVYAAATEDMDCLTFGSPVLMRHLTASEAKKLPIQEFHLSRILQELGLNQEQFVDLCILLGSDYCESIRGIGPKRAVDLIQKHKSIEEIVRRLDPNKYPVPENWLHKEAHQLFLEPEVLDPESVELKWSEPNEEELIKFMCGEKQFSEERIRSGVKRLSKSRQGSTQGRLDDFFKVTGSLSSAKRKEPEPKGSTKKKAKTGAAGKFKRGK
# Assay: qHTS Assay for the Inhibitors of Human Flap endonuclease 1 (FEN1). Further: nearly all actives have a fitted effect of over 65% in size.
# Settings: Recombinant FEN1 flap cleavage, fluorescence, 15 min; series mostly up to 114 µM
# How it was run: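 Quantitative HTS format: each compound was titrated, incubated with 10 nM nuclease for 15 min at room temperature, then challenged with flap substrate at 50 nM final. Signal change over 15 min gave concentration–effect curves.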
# Potency means the concentration at half of the fitted maximal effect; tags describe the fitted curve by direction and shape.
row,Compound,Potency
1,O=S(=O)(NCc1ccc(Cl)cc1Cl)c1cccs1,"inconclusive: 89.1 µM [inhibitor, partial curve, poor fit]"
2,Cc1noc2ncnc(N3CCCC(C(=O)NC(C)C)C3)c12 (centres undefined),inactive
3,CCN1CCN(c2cc(C)c3cc(NC(=O)c4cccc(Cl)c4)ccc3n2)CC1,"inconclusive: 50.1 µM [inhibitor, partial curve]"
4,CCCC(=O)C1=C(c2ccc(C)cc2)N(C(=O)CCC)n2cnnc2S1,inactive
5,O=C1C(Cl)=C(Nc2ccccc2O)C(=O)N1c1ccccc1,inactive
6,O=C(/C=C/c1ccccc1)CC(O)(c1ccccc1)C(F)(F)C(F)F (centres undefined),"inconclusive: 39.8 µM [inhibitor, partial curve, poor fit]"
7,Cc1cccc(-c2oc3ccccc3c2C#CCCCCO)c1,"inconclusive: 44.7 µM [inhibitor, partial curve, poor fit]"
8,CCOC(=O)c1c(-n2cnnn2)sc2c1CCCC2,inactive
9,COc1ccc(/C=C/c2cc[n+](C)c3ccccc23)cc1OC,active: 44.7 µM
10,CC(/C=N/n1c(COc2ccccc2)n[nH]c1=S)=C\c1ccco1,inactive
11,C=C(C)C(=O)Nc1cccc(C2=NOC3(C2)C[C@H](C(N)=O)N(C(=O)c2ccccc2C(=O)c2ccccc2)C3)c1 (some centres undefined),inactive
12,O=C(CN1C(=O)c2ccc([N+](=O)[O-])cc2C1=O)NCc1ccco1,inactive
13,CN(C)C(=O)CCc1ccc2c3c([nH]c2c1)[C@]1(CCC2CCCC2)[C@@H](C(=O)N2CCOCC2)C[C@H](CC(=O)NCc2cccc(C(F)(F)F)c2)C(=O)N1CC3,"inconclusive: 70.8 µM [inhibitor, partial curve, poor fit]"
14,COCCCNC(=O)Cn1c(=O)n(-c2cccc(C)c2)c(=O)c2c1c1cc(C)ccc1n2C,inactive
15,COc1cccc(/C=C2\SC(=S)N(CCCC(=O)N(CCO)c3ccccc3)C2=O)c1,"inconclusive: 79.4 µM [inhibitor, partial curve, poor fit]"
16,COc1ccc(-c2cn(CCc3c[nH]c4ccccc34)nn2)cc1,"inconclusive: 79.4 µM [inhibitor, partial curve, poor fit]"
17,Cn1nc(C(F)(F)F)c(C(=O)Nc2ccc(F)cc2F)c1Sc1cccc(C(F)(F)F)c1,"inconclusive: 50.1 µM [inhibitor, partial curve, poor fit]"
18,CCCCN(CCCC)CCNC(=O)Cn1nc(CC)n2c(cc3sccc32)c1=O,inactive
19,Cc1onc(NC(=O)c2ccc(Cl)cc2Cl)c1Br,inactive
20,CN1N/C(=C\c2ccccc2)N=C2C(=O)N(C)C(=O)N=C21,"inconclusive: 100 µM [inhibitor, partial curve, poor fit]"
21,C#CCOCCOCCOCCNc1nc(N2CCN(C(=O)CCCCCCCCCCNC(=O)[C@H]([C@@H](C)CC)n3cc(CCCCN=C(N)N)nn3)CC2)nc(N2CCN(C(=O)CCCCCCCCCCNC(=O)[C@@H]([C@H](C)O)n3cc(C)nn3)CC2)n1,active: 25.1 µM
22,CCC(=O)Nc1nc(C)c(-c2csc(Nc3cccc(O)c3)n2)s1,"inconclusive: 56.2 µM [inhibitor, single point]"

row,Compound,Potency
1,COC(=O)c1ccccc1NC(=O)C1=CC(c2ccc3c(c2)OCO3)=NS(=O)(=O)N1C,"inconclusive: 89.1 µM [inhibitor, single point]"
2,COC(=O)c1cnc(Oc2ccc(NC(=O)NC(=O)c3c(F)cccc3Cl)cc2)cc1C(F)(F)F,"inconclusive: 79.4 µM [inhibitor, partial curve, poor fit]"
3,O=C1c2ccccc2C(=O)C1c1cc2ccccc2cn1,"inconclusive: 89.1 µM [inhibitor, partial curve, poor fit]"
4,Cn1c(C(=O)NCCN2CCc3ccccc3C2)cc2c(=O)n(C)c3ccccc3c21,"inconclusive: 15.8 µM [inhibitor, partial curve, poor fit]"
5,O=C(N/N=C/c1cccc(Br)c1)c1ccc(N2CCCC2=O)cc1,"inconclusive: 89.1 µM [inhibitor, single point]"
6,Oc1ccc(/C=N/NC(=S)NC2CC3CCC2C3)cc1 (centres undefined),"inconclusive: 79.4 µM [inhibitor, partial curve, poor fit]"
7,COc1cc(CNc2ccc3[nH]c(=O)[nH]c3c2)cc(Cl)c1OCC(=O)NC(C)(C)C,"inconclusive: 39.8 µM [inhibitor, partial curve, poor fit]"
8,CCN1CCN(Cc2c(O)ccc3c2O/C(=C\c2ccccc2)C3=O)CC1,inactive
9,C=CC1=C(C(=O)O)N2C(=O)[C@@H](NC(=O)/C(=N\O)c3csc(N)n3)[C@H]2SC1 (stereo in doubt),inactive
10,O=C(COc1ccc(Cl)cc1)N(Cc1ccco1)Cc1ccco1,"inconclusive: 79.4 µM [inhibitor, partial curve, poor fit]"
11,Cc1nc2ccn(Cc3cccs3)c(=O)c2cc1C(=O)NCc1ccc(Br)cc1,inactive
12,O=C(CCN1CCCCCC1)c1ccccc1,inactive
13,Cc1ccc(NC(=O)N2CCc3cc(S(=O)(=O)N4CCC(C)CC4)ccc32)cc1,inactive
14,C(=Nc1ccc(/C=C/c2ccnc3ccccc23)cc1)c1cccs1,"inconclusive: 44.7 µM [inhibitor, partial curve, poor fit]"
15,COC(=O)c1sccc1-c1ccc(C(=O)Nc2cccc(Cl)c2)o1,"inconclusive: 79.4 µM [inhibitor, partial curve, poor fit]"
16,Cc1ccc(NC(=O)CN2C(=O)N/C(=C\c3cccn3-c3cccc(C(=O)O)c3)C2=O)cc1,active: 79.4 µM
17,CCCNC(=O)C1=CC(c2ccc3c(c2)OCO3)=NS(=O)(=O)N1C,inactive
18,c1csc(Cc2nn3c(-c4ccncc4)nnc3s2)c1,"inconclusive: 89.1 µM [inhibitor, single point]"
19,CCCCC[C@H](O)/C=C/[C@@H]1[C@@H](C/C=C\CCCC(=O)OC)[C@@H](O)C[C@H]1O,"inconclusive: 11.2 µM [inhibitor, partial curve, poor fit]"
20,Cc1[nH]n(-c2ccccc2)c(=O)c1C(c1cc(Cl)ccc1O)c1c(C)[nH]n(-c2ccccc2)c1=O,"inconclusive: 14.1 µM [inhibitor, full curve, poor fit]"
21,CNC(=S)NNC(=O)c1cccc(C(F)(F)F)c1,inactive
22,CC1=C(C(=O)Nc2ccccc2)C(c2ccccc2C)n2nc(SCC(=O)c3ccc(C)cc3)nc2N1 (centres undefined),inactive

row,Compound,Potency
1,COC(=O)c1c(-c2cccs2)csc1NC(=O)c1ccc(Br)cc1,"inconclusive: 89.1 µM [inhibitor, partial curve, poor fit]"
2,CCC(C)Sc1cc(-c2nc3ccccn3c2NC2CCCCC2)ccc1OC (centres undefined),"inconclusive: 79.4 µM [inhibitor, partial curve, poor fit]"
3,Cc1c(C(=O)N2CCCC2)oc2c1-c1nn(CC(=O)NCc3ccccc3Br)cc1CC2,"inconclusive: 20 µM [inhibitor, partial curve, poor fit]"
4,CCN(CC)CCNc1ccc(CO)c2sc3ccccc3c(=O)c12,active: 31.6 µM
5,CC(=O)c1cccc(N2Cc3ccccc3C2=NC(=O)CCl)c1,inactive
6,CCOc1ccccc1C(=O)NCC(=O)NNC(=O)c1cccc(S(=O)(=O)Nc2ccc(OC)cc2)c1,inactive
7,CN(C)c1ncnc2sc(-c3ccccc3)cc12,"inconclusive: 79.4 µM [inhibitor, partial curve]"
8,S=C1Cc2ccccc2N1,"inconclusive: 8.91 µM [inhibitor, full curve, poor fit]"
9,CNc1ccc(Br)cc(C(=O)/C=C/c2ccc(OC)cc2OC)c1=O,"inconclusive: 50.1 µM [inhibitor, partial curve]"
10,COc1cc(/C=C(\C#N)c2nc3ccccc3[nH]2)ccc1OCc1ccc(F)cc1,"inconclusive: 89.1 µM [inhibitor, partial curve, poor fit]"
11,O=C(N/N=C/c1ccc(O)c(O)c1O)/C(=C/c1ccc([N+](=O)[O-])cc1)NC(=O)c1ccccc1,"inconclusive: 50.1 µM [inhibitor, partial curve, poor fit]"
12,CN(Cc1cnc2nc(N)nc(N)c2n1)c1ccc(C(=O)N[C@@H](CCC(=O)O)C(=O)O)cc1,"inconclusive: 50.1 µM [inhibitor, partial curve]"
13,COc1ccccc1N1CCN(C(=O)c2cnn(-c3cccc(Cl)c3)c2C2CCN(C(=O)OC(C)(C)C)CC2)CC1,inactive
14,CC(C)(C)c1ccc(/C=N/NC(=O)Cc2c[nH]c3ccccc23)cc1,"inconclusive: 50.1 µM [inhibitor, partial curve, poor fit]"
15,N#Cc1c(N)sc(=S)c2c1CCCCC2,"inconclusive: 89.1 µM [inhibitor, single point]"
16,COc1ccc(/C=N/NC(=O)c2[nH]c3ccc(Cl)cc3c2-c2ccccc2)c(C(=O)O)c1OC,"inconclusive: 89.1 µM [inhibitor, single point]"
17,Cc1cc(SCC(=O)N/N=C/c2ccc(O)c(O)c2)nc2ccccc12,"inconclusive: 44.7 µM [inhibitor, partial curve, poor fit]"
18,COc1ccc(CCn2c(C)cc(C(=O)COC(=O)c3ccc(NC(=O)CC#N)cc3)c2C)cc1,inactive
19,COc1ccccc1CCNC(=O)Cn1ccc2cc(S(=O)(=O)N3CCCCC3)ccc21,"inconclusive: 35.5 µM [inhibitor, partial curve, poor fit]"
20,CC(C)c1c(C(=O)N/N=C/c2cccc(OCc3ccccc3)c2)nnn1-c1nonc1N,"inconclusive: 28.2 µM [inhibitor, partial curve, poor fit]"
